# In PubChem BioAssay AID1745853 (National Center for Advancing Translational Sciences (NCATS), 2022):
# Some of the results follow. These are further read-outs of the screen, such as a control signal, another cell line or another target. No call is given for them.
# Experiments:
# Assay in all cases: Primary Screen for Target Class Profiling of Small Molecule Inhibitors of Methyltransferases
# [1] = biological target: Glycine N-methyltransferase (Homo sapiens) (UniProt Q14749); details: purified enzyme, MTase-Glo SAH luminescence; measured here: GNMT inhibition; at 40 µM; stronger effect = lower value
# In short: (§1)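 Each enzyme was reacted with SAM and its substrate, with compounds tested once at 40 uM; SAH formed was read by MTase-Glo luminescence.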
# [2] = biological target: Guanidinoacetate N-methyltransferase (Homo sapiens) (UniProt Q14353); details: purified enzyme, MTase-Glo SAH luminescence; measured here: GAMT inhibition; at 40 µM; stronger effect = lower value
# In short: as §1
# [3] = biological target: Histamine N-methyltransferase (Homo sapiens) (UniProt P50135); details: purified enzyme, MTase-Glo SAH luminescence; measured here: HNMT inhibition; at 40 µM; stronger effect = lower value
# In short: as §1
# [4] = biological target: Nicotinamide N-methyltransferase (Homo sapiens) (UniProt P40261); details: purified enzyme, MTase-Glo SAH luminescence; measured here: NNMT inhibition; at 40 µM; stronger effect = lower value
# In short: as §1
# [5] = biological target: Phenylethanolamine N-methyltransferase (Homo sapiens) (UniProt P11086); details: purified enzyme, MTase-Glo SAH luminescence; measured here: PNMT inhibition; at 40 µM; stronger effect = lower value
# In short: as §1
# % is scaled to controls: 0 for no effect and ±100 for the full control effect.
SMILES,"activity change, negative = inhibition [1]","activity change, negative = inhibition [2]","activity change, negative = inhibition [3]","activity change, negative = inhibition [4]","activity change, negative = inhibition [5]"
CC(C)C(C)C(O)C1CC23CC(=O)C4(O)C(=C2CCC3C1C)C=CC1(O)CC(O)CCC14C (stereo not given),-0.183%,-4.12%,3.69%,-18.4%,-14.6%
COc1ccc(C2CCC(=O)N2Cc2ccc(F)cc2)cc1 (stereo not given),-4.75%,-2.88%,-1.31%,-20.6%,-7.78%
COc1cc(/C=C2\CC[C@H]3COC[C@@H](c4cc(F)c(F)c(F)c4)N3C2=O)ccc1-n1cnc(C)c1,1.19%,1.11%,2.65%,-15.2%,-0.602%
CCC(C)NC(=O)c1ccc2c(=O)n(C(C)C)c3nn(CC(=O)NC4CCCC4)c(=O)n3c2c1 (stereo not given),8.52%,0%,7.73%,1.73%,4.79%
C/C(=C\C=C\C(C)C1CCC2(C)C3CCC4C(C)(C)C(=O)CCC45CC35CCC12C)C(=O)O (stereo not given),-2.15%,-8.66%,5.31%,-35.4%,-10.6%
CC(Oc1ccc2ccccc2c1)C(=O)N(C)Cc1ccc2nsnc2c1 (stereo not given),-8.92%,-8.16%,-6.52%,-20%,-22.4%
Brc1c(NC2=NCCN2)ccc2nccnc12,-45.2%,7.67%,-0.119%,-7.15%,-0.821%
CC(C)Cc1nc(CN2CCn3nc(C(O)c4ccnn4C)cc3C2)no1 (stereo not given),0.985%,1.26%,1.51%,-1.3%,6.92%
CC(C)OCCCNC(=O)C1(C)Cn2c(cc3ccccc32)C(=O)N1Cc1cccc(Cl)c1 (stereo not given),5.62%,0%,9.7%,6.13%,1.67%
O=C(c1ccsc1)N1CCC2(CCCN(CC3CCC3)C2=O)C1 (stereo not given),-2.47%,-6.7%,-1.42%,-7.11%,-4.71%
CC(NC(=O)Cn1c(=O)oc2cc(S(=O)(=O)NCc3ccccc3)ccc21)c1ccccc1 (stereo not given),-0.217%,0.669%,5.06%,1.65%,-1.31%
CN(C)CCOC(=O)COc1ccc(Cl)cc1,5.82%,15.3%,-6.28%,-0.571%,2.52%
O=C(NC1CCN(c2cc(-c3ccc(F)cc3)[nH]n2)C1)c1cc2ccccc2[nH]1 (stereo not given),-19.8%,-3.94%,-2.58%,-19.2%,-6.84%
CC1=C[C@@H]2[C@H]3[C@@H]4O[C@@](C)(CC[C@H]4O)[C@H]3CC(=O)[C@]23C(=O)N[C@@H](CC(C)C)[C@@H]3[C@@H]1C,5.43%,2.21%,8.92%,-11.3%,-0.727%
O=C1CCCCN1CCNc1ccc(-c2nc(-c3ccccc3F)no2)cn1,-7.95%,-11.7%,-17.8%,-4.32%,-0.933%
Cc1ccc(CCNC(=O)CCCn2ccc3cc(S(=O)(=O)N4CCCC4)ccc32)cc1,6.59%,0.197%,8.33%,4.86%,4.81%
Cc1cc(C(=O)NC2CCCC2)c2c(C3CCNC3)noc2n1 (stereo not given),-1.36%,2.57%,-1.28%,-1.06%,-4.57%
O=C(NCc1ccc(OC(F)(F)F)cc1)C1c2c(F)cccc2C(=O)N1CCc1ccccn1 (stereo not given),2.42%,8.02%,11.4%,-10.3%,3.57%
CC1CCC(NC(=O)C2(C)Cn3c(cc4sccc43)C(=O)N2CCN2CCCCCC2)CC1 (stereo not given),-6.18%,2.19%,-15.6%,-3.4%,-3.63%
